# Screen size: about 110,000 compounds; about 230 (0.21%) showed an effect of 50% or more. This is one part of the list.
# Biological target: DPAP1 (Plasmodium falciparum, UniProt Q8IIJ9)
# Assay: primary screen, percent inhibition; read by cleavage of a fluorogenic dipeptide substrate; higher = more effect of the substance
# Design: species or system P. falciparum D10 trophozoite lysates; single well
# 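Note: 30 min substrate incubation versus DMSO and 10 µM JCP410 controls.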
# DPAP1, sequence (Q8IIJ9 whole entry, looked up): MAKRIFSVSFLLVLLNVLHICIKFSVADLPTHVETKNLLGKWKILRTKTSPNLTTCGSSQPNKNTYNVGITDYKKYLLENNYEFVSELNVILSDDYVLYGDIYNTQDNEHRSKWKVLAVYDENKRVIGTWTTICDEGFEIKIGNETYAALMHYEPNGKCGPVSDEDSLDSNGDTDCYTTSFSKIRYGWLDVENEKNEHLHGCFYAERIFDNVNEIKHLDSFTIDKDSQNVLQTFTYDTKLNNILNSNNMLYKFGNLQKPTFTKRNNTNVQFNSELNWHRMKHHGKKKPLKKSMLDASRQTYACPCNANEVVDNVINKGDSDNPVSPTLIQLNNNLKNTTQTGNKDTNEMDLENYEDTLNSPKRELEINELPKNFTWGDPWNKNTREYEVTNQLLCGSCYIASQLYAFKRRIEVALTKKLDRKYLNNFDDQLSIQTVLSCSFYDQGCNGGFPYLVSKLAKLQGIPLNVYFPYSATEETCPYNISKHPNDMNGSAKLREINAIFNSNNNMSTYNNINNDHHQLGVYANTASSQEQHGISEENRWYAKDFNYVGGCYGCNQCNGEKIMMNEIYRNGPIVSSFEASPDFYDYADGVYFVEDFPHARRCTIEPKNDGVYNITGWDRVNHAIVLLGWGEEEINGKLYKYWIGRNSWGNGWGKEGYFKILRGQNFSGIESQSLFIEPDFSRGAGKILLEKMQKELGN
row,SMILES,% Inhibition @ 10 uM [%]
1,Clc1cccc(Cl)c1CN1CCC(N2CCCCC2)CC1,-3.5
2,N#C/C(=C\c1ccc(O)cc1)C(=O)NCCc1ccccc1Cl,-0.256
3,COc1ccccc1NC(=O)C1C(C(=O)O)C2C=CC1C21CC1 (stereo not shown),3.25
4,CCOc1ccc(C2CC(=O)N3CN(Cc4ccccc4)CSC3=C2C#N)cc1 (stereo not shown),48.5
5,CCOC(=O)N1CCN(c2ccncc2S(=O)(=O)N2CCCCC2)CC1,1.94
6,COCCCn1c(=N)c(S(=O)(=O)c2ccc(C)cc2)cc2c(=O)n3ccccc3nc21,-5.01
7,C=CCn1c(SCC(=O)Nc2ccccc2)nc2sc(C)c(C)c2c1=O,2.7
8,CC(C)CCNC(=O)CCCCn1c(=O)[nH]c2ccsc2c1=O,4.02
9,Cc1c(Cl)c(=O)oc2cc(OCC(=O)c3ccc(Cl)cc3)ccc12,-1.26
10,CC(C)(C)c1ccc2c(c1)OP(=O)(O)C=C2c1ccccc1,-9.48
11,COc1cccc(CNC(=O)COc2ccccc2C#N)c1OC,-1.6
12,CCOC(=O)c1ccc2[nH]c3c(c2c1)CCCC3O (stereo not shown),-0.693
13,N#CC1=C(N)C(C#N)(C#N)[C@@H](c2ccccc2C(F)(F)F)[C@@H]2CCCC=C12,-9.32
14,O=S(=O)(NCCc1ccncc1)c1ccccc1,0.316
15,CCN(CC)CCCCOc1ccc(C(C)(C)C)cc1,-0.414
16,Cc1cccc(C2=N/C(=C\c3cccc(C(F)(F)F)c3)C(=O)O2)c1,1.25
17,Cc1cc(C(F)(F)F)nn1CC(=O)Nc1sc2c(c1C(N)=O)CCC(C(C)(C)C)C2 (stereo not shown),1.08
18,COc1cc(OC)c(OC)cc1CN1CCN(C2CCCC(C)C2)CC1 (stereo not shown),0.611
19,Cc1ccc2oc3c(c(=O)c2c1)C(c1ccc(F)cc1)N(c1ccccn1)C3=O (stereo not shown),0.415
20,N#CCOc1ccccc1/C=C1/Sc2ccccc2C1=O,-0.988
21,Cc1ccc(CNC(=O)C2CCC(CNc3c(N4CCC(C)CC4)c(=O)c3=O)CC2)cc1 (stereo not shown),5.91
22,CCN(CC)c1ccc2c(O)cc(=O)oc2c1,-1.85
23,Cc1nn(CC(=O)NCCN2CCN(C)CC2)c(=O)c2nn(-c3ccccc3)c(C)c12,-1.76
24,CCSC1=C(C#N)C(=O)NC(C)S1 (stereo not shown),-1.72
25,COc1nc(-c2ccccc2)cc(-c2ccc(OC)c(OC)c2)n1,-3.27
26,COc1cc(C(=O)NCCC(=O)NCc2c(F)cc(F)cc2F)cc(OC)c1OC,-0.519
27,Cc1cc2nc(Nc3nc(O)c4c(n3)CCC4)nc(C)c2cc1C,2.69
28,C(#Cc1ccccc1)CN1CCN(C23CC4CC(CC(C4)C2)C3)CC1,6.96
